Assay results: publication PMC8087825
Results are given in words; binding and its absence hold for the method and conditions named. In cells and extracts the contact can be indirect. Some results given as binding are weak or reduced against the parent protein; the word gives no strength.

Protein sequences, listed by entry. Tags and fused reporters are not part of them. Lines headed by an entry give the natural chain unless they say otherwise; changes in a name come on top.
UniProt P42336: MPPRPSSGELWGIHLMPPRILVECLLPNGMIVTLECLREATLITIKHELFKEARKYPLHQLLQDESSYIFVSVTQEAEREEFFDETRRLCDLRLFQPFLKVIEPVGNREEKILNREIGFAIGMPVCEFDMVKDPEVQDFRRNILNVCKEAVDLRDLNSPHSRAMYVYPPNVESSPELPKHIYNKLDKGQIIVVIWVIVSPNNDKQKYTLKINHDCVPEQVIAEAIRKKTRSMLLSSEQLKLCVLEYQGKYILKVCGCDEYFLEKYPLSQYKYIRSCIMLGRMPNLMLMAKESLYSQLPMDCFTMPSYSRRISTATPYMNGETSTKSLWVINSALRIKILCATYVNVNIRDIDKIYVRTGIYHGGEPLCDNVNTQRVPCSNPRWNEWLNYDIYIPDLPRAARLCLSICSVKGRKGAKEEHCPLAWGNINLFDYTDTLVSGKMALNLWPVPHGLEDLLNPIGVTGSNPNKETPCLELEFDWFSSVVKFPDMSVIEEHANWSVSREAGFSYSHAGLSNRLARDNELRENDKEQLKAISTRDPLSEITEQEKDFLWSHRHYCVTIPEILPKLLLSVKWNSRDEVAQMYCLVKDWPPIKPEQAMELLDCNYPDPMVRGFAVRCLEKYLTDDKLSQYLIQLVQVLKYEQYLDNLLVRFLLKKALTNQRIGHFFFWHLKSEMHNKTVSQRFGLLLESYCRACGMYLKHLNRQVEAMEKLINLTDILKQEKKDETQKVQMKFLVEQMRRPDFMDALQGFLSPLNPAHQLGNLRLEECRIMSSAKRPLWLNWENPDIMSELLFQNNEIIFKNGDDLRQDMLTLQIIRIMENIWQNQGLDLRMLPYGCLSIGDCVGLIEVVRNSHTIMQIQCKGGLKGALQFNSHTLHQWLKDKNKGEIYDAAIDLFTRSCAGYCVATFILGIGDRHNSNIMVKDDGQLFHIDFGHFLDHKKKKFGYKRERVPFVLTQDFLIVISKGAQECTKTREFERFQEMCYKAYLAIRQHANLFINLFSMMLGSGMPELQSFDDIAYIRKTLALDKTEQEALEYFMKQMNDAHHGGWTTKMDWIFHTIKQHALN
UniProt P27986: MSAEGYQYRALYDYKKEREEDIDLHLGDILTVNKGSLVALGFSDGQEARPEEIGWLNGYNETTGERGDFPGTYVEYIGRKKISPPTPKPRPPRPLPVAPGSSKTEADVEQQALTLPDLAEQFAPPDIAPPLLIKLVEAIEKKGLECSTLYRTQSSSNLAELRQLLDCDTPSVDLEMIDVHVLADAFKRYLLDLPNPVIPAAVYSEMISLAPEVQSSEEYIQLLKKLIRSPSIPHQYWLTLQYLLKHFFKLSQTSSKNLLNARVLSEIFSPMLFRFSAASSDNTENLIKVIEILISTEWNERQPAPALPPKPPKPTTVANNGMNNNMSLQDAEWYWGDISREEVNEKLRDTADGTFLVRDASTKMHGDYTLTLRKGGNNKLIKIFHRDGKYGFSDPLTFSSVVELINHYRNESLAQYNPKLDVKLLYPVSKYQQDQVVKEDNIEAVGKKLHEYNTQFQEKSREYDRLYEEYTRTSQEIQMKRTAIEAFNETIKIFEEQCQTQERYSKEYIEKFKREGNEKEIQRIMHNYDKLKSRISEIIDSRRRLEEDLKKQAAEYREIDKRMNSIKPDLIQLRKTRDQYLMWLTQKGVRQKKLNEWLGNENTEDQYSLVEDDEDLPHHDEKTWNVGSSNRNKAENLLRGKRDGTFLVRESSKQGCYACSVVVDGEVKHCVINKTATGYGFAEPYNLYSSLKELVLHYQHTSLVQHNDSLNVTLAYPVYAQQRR
UniProt P15531: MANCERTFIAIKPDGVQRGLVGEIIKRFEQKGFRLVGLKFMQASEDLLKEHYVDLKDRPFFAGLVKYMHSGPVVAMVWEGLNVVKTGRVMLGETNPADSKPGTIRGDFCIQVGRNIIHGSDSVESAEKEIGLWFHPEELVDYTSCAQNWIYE

How the values were obtained:
Myc-p110α = Myc-p110α (UniProt P42336); experiment: co-IP; lysates of transfected MDA-MB-435 cells; Co-IP with anti-Myc or anti-GFP antibody, mouse IgG as control; Western blot
Myc-p85α = Myc-p85α (UniProt P27986); experiment: as above
[1] = target: GST fusion protein of NM23-H1 (GST-NM23-H1) (UniProt P15531); experiment: pull-down; GST or GST-NM23-H1 fusion protein incubated with [35S]methionine-labeled in vitro translated p110α or p85α; bound proteins resolved on SDS-PAGE; only the target purified

GFP-NM23-H1 (from UniProt P15531 1-152)
binding (Myc-p110α): binds
binding (Myc-p85α): no binding

HA-H118F NM23-H1 mutant (from UniProt P15531 1-152)
binding (Myc-p110α): no binding

HA-P96S NM23-H1 mutant (from UniProt P15531 1-152)
binding (Myc-p110α): no binding

HA-S120G NM23-H1 mutant (from UniProt P15531 1-152)
binding (Myc-p110α): no binding

in vitro-transcribed/translated 35S-labeled p85α (from UniProt P27986 1-724)
binding [1]: no binding
